In PubChem BioAssay AID1030 (National Center for Advancing Translational Sciences (NCATS), 2008):
About 16,000 (7.3%) of roughly 220,000 compounds were called active. Inconclusive means that the source gave no clear call. Such entries were picked first, then a sample of the others. The call rests on the fitted dose curve; in most records, active means well fitted inhibition curve with a large enough effect (not every such curve was filed as active); inconclusive means small, poorly fitted or top-dose-only effect, or another doubt; inactive means no such curve, though single readings can be large or run the other way. No potency is given beside an inconclusive call; the fits are too rough.

What follows are compounds tested against Aldehyde dehydrogenase 1A1 (Homo sapiens) (UniProt P00352) (assay: qHTS Assay for Inhibitors of Aldehyde Dehydrogenase 1 (ALDH1A1)). Conditions: Purified ALDH1A1, NADH fluorescence, propionaldehyde substrate; series mostly up to 75.3 µM; activity, negative = inhibition: at the top concentration.
Potency means the concentration at half of the fitted maximal effect; tags describe the fitted curve by direction and shape.
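Wherever activity, negative = inhibition is given: plate controls were no enzyme wells and a reference inhibitor.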

Sequence of UniProt P00352 (P00352 whole entry, looked up): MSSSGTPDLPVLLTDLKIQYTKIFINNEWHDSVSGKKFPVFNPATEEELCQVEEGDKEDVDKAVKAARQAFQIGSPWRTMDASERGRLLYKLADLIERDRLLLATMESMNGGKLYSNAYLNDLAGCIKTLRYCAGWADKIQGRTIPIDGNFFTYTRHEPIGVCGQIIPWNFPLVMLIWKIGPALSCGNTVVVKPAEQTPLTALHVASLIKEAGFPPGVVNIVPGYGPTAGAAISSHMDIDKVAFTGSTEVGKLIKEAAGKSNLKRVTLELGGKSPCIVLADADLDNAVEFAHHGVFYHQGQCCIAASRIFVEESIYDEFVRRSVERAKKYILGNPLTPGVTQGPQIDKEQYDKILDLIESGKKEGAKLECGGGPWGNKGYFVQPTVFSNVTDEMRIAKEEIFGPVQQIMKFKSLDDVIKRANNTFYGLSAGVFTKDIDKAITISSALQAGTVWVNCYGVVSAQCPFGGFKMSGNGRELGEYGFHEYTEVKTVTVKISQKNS

Question: `CC1(C)CC(=O)C2=C(C1)N(c1ccc(F)cc1)C(=O)C2(NC(=O)c1ccccc1F)C(F)(F)F` (stereo not given) was tested. Which “activity, negative = inhibition” value did it give?
Answer: inactive: 24%

Question: How did the “activity, negative = inhibition” value turn out when `O=C1CCCN1CC(O)CS(=O)(=O)c1ccc(Cl)cc1` (stereo not given) was run?
Answer: inactive: 1.95%

Question: With `CC(C)(C)NC(=O)/C(=C\c1cccnc1)NC(=O)c1ccco1` as the compound, how does the “activity, negative = inhibition” value read?
Answer: inactive: -3.12%

Question: How did the Potency turn out when `CC1=CC(=O)C(C(C)C)=C/C1=N/OC(=O)c1cccc([N+](=O)[O-])c1` was run?
Answer: inconclusive [inhibitor, single point]

Question: With `CC(C)(C)OC(=O)N1CCC[C@H]1c1nnc(SCc2c(Cl)cccc2Cl)o1` as the compound, how does the Potency read?
Answer: inconclusive [inhibitor, single point]

Question: Which Potency does the source give for `O=C(NC(=S)Nc1nc2c(ccc3ccccc32)s1)c1cccs1` here?
Answer: inconclusive [inhibitor, single point]

Question: For `COCCOC(=O)c1[nH]c2c(c1C)C(=O)C(C(=O)OC)C(C)C2` (stereo not given), which “activity, negative = inhibition” value is on record?
Answer: inactive: -6.26%

Question: With `O=C(CSc1nc2sc3c(c2c(=O)n1-c1ccccc1)CCCC3)NCc1ccco1` as the compound, how does the Potency read?
Answer: inconclusive [inhibitor, partial curve, poor fit]

Question: How did the Potency turn out when `CCOC(=O)C1(CCCc2ccccc2)CCN(Cc2cn(CC)nc2C)CC1` was run?
Answer: inconclusive [inhibitor, single point]

Question: How did the Potency turn out when `Cc1nn(-c2ccccc2)c(N2CCCCC2)c1/C=N/NC(=O)c1ccncc1` was run?
Answer: inconclusive [inhibitor, single point]

Question: How did the “activity, negative = inhibition” value turn out when `Cc1ccc(S(=O)(=O)N2CCOCC2)cc1NC(=O)CSc1nnc(N)s1` was run?
Answer: inactive: 4.41%

Question: Which Potency does the source give for `Cc1cccc(N(Cc2cc3ccccc3[nH]c2=O)S(C)(=O)=O)c1` here?
Answer: active: 23.8 µM

Question: How did the Potency turn out when `N#CCCn1c(=O)c(-c2ccc(Cl)cc2)nc2cnc(Oc3cccc(Cl)c3)nc21` was run?
Answer: inconclusive [inhibitor, partial curve]

Question: How did the “activity, negative = inhibition” value turn out when `Cc1ccc(C(=O)N2CCOCC2)cc1[N+](=O)[O-]` was run?
Answer: inactive: -3.54%

Question: `CS(=O)(=O)N1CCc2cc(C(=O)Nc3ccccc3)ccc21` was tested. Which “activity, negative = inhibition” value did it give?
Answer: inactive: 0.559%

Question: With `CCOc1ccc(CCNC(=O)Cn2c(=O)oc3ccccc32)cc1OCC` as the compound, how does the “activity, negative = inhibition” value read?
Answer: inactive: -3.41%

Question: With `COc1ccc(/C=C/C(=O)NC(=S)Nc2ccc(S(=O)(=O)Nc3nccnc3OC)cc2)cc1` as the compound, how does the Potency read?
Answer: inconclusive [inhibitor, single point]

Question: With `CN1CCN(C(=O)C2=C[C@@H](c3ccc(Br)cc3)C[C@@H](OCc3ccc(CO)cc3)O2)CC1` as the compound, how does the “activity, negative = inhibition” value read?
Answer: inactive: -2.95%

Question: Which Potency does the source give for `N#CCc1nn2c3c(cnc2c1C#N)C(=O)CCC3` here?
Answer: inconclusive [inhibitor, partial curve]

Question: `Cc1cc(O)c(C=O)c2c1C(=O)Oc1c(C)c(O)c3c(c1O2)C(O)OC3=O` (stereo not given) was tested. Which Potency did it give?
Answer: inconclusive [inhibitor, partial curve]

Question: `CC(=O)N1CCN(c2ccc(NC(=O)C(C)Oc3ccc(Cl)cc3Cl)cc2)CC1` (stereo not given) was tested. Which Potency did it give?
Answer: inconclusive [inhibitor, single point]

Question: How did the Potency turn out when `NC(=O)c1cc([N+](=O)[O-])ccc1NCc1cccnc1` was run?
Answer: inconclusive [inhibitor, single point]

Question: How did the Potency turn out when `O=S(=O)(c1ccc(N2CCCC2c2nc3ccccc3s2)nc1)N1CCOCC1` (stereo not given) was run?
Answer: inconclusive [inhibitor, single point]

Question: `CCNC(=S)N1CCN(C(=O)c2ccco2)CC1` was tested. Which “activity, negative = inhibition” value did it give?
Answer: inactive: 8.19%

Question: With `CN1c2ccccc2C(O)=C(C(=S)Nc2ccccc2)S1(=O)=O` as the compound, how does the “activity, negative = inhibition” value read?
Answer: inactive: -4.75%

Question: Which Potency does the source give for `Cc1ccnc2ccc(-c3nc4ccccc4o3)cc12` here?
Answer: inconclusive [inhibitor, partial curve]

Question: Which Potency does the source give for `COc1ccc(-n2c(Cc3cccn3C)nnc2SCC(=O)Nc2cc(Cl)ccc2OC)cc1` here?
Answer: inconclusive [inhibitor, single point]

Question: How did the Potency turn out when `Cc1ccccc1CS(=O)(=O)c1nnc([C@H](Cc2ccccc2)NC(=O)OC(C)(C)C)o1` was run?
Answer: active: 14.1 µM

Question: How did the “activity, negative = inhibition” value turn out when `O=C(Cn1nnc(-c2ccccc2)n1)NNC(=O)c1ccco1` was run?
Answer: inactive: 1.33%

Question: How did the Potency turn out when `CC(C)(C)c1cc[n+](/C(C(=S)NC2CC2)=C(/[O-])c2ccc(Cl)s2)cc1` was run?
Answer: inconclusive [inhibitor, single point]

Question: With `Cc1ccc(-c2noc(CSc3nnnn3-c3ccccc3)n2)cc1` as the compound, how does the Potency read?
Answer: active: 7.08 µM

Question: `O=S(=O)(CC(CN1CCCC1)N1CCCC1)c1ccc2ccccc2c1` (stereo not given) was tested. Which Potency did it give?
Answer: inconclusive [inhibitor, single point]

Question: For `CCOCCCNC(=O)C(NC(=O)c1ccccc1O)c1ccc(Cl)cc1` (stereo not given), which Potency is on record?
Answer: inconclusive [inhibitor, single point]

Question: `CC(C)Sc1nc2c(c(=O)n1-c1ccc(F)cc1)SCC2` was tested. Which Potency did it give?
Answer: inconclusive [inhibitor, single point]

Question: With `COc1ccc(-c2cn3cccnc3n2)cc1Br` as the compound, how does the Potency read?
Answer: inconclusive [inhibitor, partial curve]

Question: With `CCOC(=O)c1c(N)c(C#N)c2n1CCCCC2` as the compound, how does the Potency read?
Answer: inconclusive [inhibitor, single point]

Question: `CCCCC(=O)Nc1cccc(-c2cn3ccccc3n2)c1` was tested. Which Potency did it give?
Answer: active: 28.2 µM

Question: With `CCOC(=O)C(C)C(C)=O` (stereo not given) as the compound, how does the “activity, negative = inhibition” value read?
Answer: inactive: 5.89%

Question: `Cc1ccc2nc(-c3ccc(NC(=O)COC(=O)c4cncc(Br)c4)cc3)sc2c1` was tested. Which Potency did it give?
Answer: inconclusive [inhibitor, single point]

Question: For `Cc1ccc(CSCCNS(=O)(=O)c2ccc(C)cc2)cc1`, which Potency is on record?
Answer: active: 10 µM

Question: Which Potency does the source give for `Cc1cc(=O)oc2cc(OCC(=O)N3CCN(C(=O)c4ccco4)CC3)ccc12` here?
Answer: inconclusive [inhibitor, partial curve]

Question: With `Cc1ccc(S(=O)(=O)Nc2cccc(-c3cn4ccsc4n3)c2)cc1` as the compound, how does the Potency read?
Answer: active: 15.8 µM

Question: With `O=c1[nH]c(=O)n(C2CC(O)C(CO)O2)cc1C(F)(F)F` (stereo not given) as the compound, how does the “activity, negative = inhibition” value read?
Answer: inactive: 4.45%

Question: How did the Potency turn out when `CC1(C)Cc2c(C#N)c(NCCO)nc(-c3ccco3)c2CO1` was run?
Answer: inconclusive [inhibitor, partial curve]

Question: Which Potency does the source give for `CC(C)(C)c1ccccc1N=Cc1ccc2ccccc2n1` here?
Answer: inconclusive [inhibitor, single point]

Question: With `CSc1nc(-c2ccco2)nn1S(=O)(=O)c1ccc(C)cc1` as the compound, how does the Potency read?
Answer: inconclusive [inhibitor, single point]

Question: With `CCS(=O)(=O)Nc1ccc(C2=NN(C(=O)c3ccco3)C(c3ccc(C)cc3)C2)cc1` (stereo not given) as the compound, how does the Potency read?
Answer: inconclusive [inhibitor, partial curve]

Question: `Clc1ccc2[nH]c3c(c2c1)CCc1cn[nH]c1-3` was tested. Which Potency did it give?
Answer: inconclusive [inhibitor, single point]

Question: Which Potency does the source give for `COCCCNC(=O)CSC1=Nc2ccccc2C2=NC(c3ccccc3)C(=O)N12` (stereo not given) here?
Answer: inconclusive [inhibitor, partial curve]

Question: How did the Potency turn out when `Cc1cc(F)ccc1S(=O)(=O)Nc1ccccc1C(=O)NCc1cccnc1` was run?
Answer: inconclusive [inhibitor, partial curve]

Question: With `N[C@@H](CCC(=O)N[C@H](CSN=O)C(=O)NCC(=O)O)C(=O)O` as the compound, how does the “activity, negative = inhibition” value read?
Answer: inactive: -7.06%

Question: `CCOC(=O)Cc1[nH]nc2c1C(c1ccsc1)C(C#N)=C(N)O2` (stereo not given) was tested. Which “activity, negative = inhibition” value did it give?
Answer: inactive: -5.35%

Question: For `O=c1[nH]ccc2c(S(=O)(=O)N3CCCNCC3)cccc12`, which Potency is on record?
Answer: inconclusive [inhibitor, partial curve]

Question: For `Cc1ccc2c(c1)N(C(=O)c1ccco1)C(C)(C)c1ssc(=S)c1-2`, which “activity, negative = inhibition” value is on record?
Answer: inactive: -0.309%

Question: `O=C(O)CCN1C(=O)/C(=C/c2ccc(-c3nc4ccccc4s3)o2)SC1=S` was tested. Which Potency did it give?
Answer: active: 3.55 µM

Question: For `CCCCn1nnnc1SCC(=O)c1ccccc1F`, which “activity, negative = inhibition” value is on record?
Answer: inactive: -6.17%

Question: For `N#Cc1c(/N=C/c2ccccc2)oc(-c2ccccc2)c1-c1ccccc1`, which Potency is on record?
Answer: inconclusive [inhibitor, single point]

Question: `Cc1ccc(C(=O)NC(=S)Nc2ccccc2C(F)(F)F)cc1C` was tested. Which Potency did it give?
Answer: active: 4.47 µM

Question: For `Cc1nnn(-c2nonc2N)c1C(=O)N/N=C/c1cccc2ccccc12`, which “activity, negative = inhibition” value is on record?
Answer: inactive: 7.18%

Question: Which Potency does the source give for `c1csc(-c2nnsc2-c2nc3ccccc3[nH]2)c1` here?
Answer: active: 10 µM

Question: How did the Potency turn out when `Cc1[nH]n(-c2nc(-c3cccc([N+](=O)[O-])c3)cs2)c(=O)c1C` was run?
Answer: inconclusive [inhibitor, single point]

Question: Which “activity, negative = inhibition” value does the source give for `O=C(CN1CCCCC1)Nc1scc2c1c(=O)oc1ccccc12` here?
Answer: inactive: 4.93%

Question: Which “activity, negative = inhibition” value does the source give for `COc1cc(NC(=S)NC2CC(C)(C)NC(C)(C)C2)c(OC)cc1Cl` here?
Answer: inactive: 7.5%

Question: With `Cc1ccc(NC(=O)C2CC(=O)N/C(=N/NC(=O)c3ccc(C)cc3)S2)cc1` (stereo not given) as the compound, how does the Potency read?
Answer: inconclusive [inhibitor, single point]

Question: Which Potency does the source give for `Cc1onc(C(=O)N2CCN(c3ccccc3F)CC2)c1-c1ccccc1Cl` here?
Answer: inconclusive [inhibitor, single point]

Question: For `Cc1noc(C)c1COC(=O)c1ccc2c(c1)S(=O)(=O)c1ccccc1C2=O`, which Potency is on record?
Answer: active: 12.6 µM

Question: `c1coc(C2Nc3ccccc3-c3nc4ccccc4n32)c1` (stereo not given) was tested. Which Potency did it give?
Answer: inconclusive [inhibitor, partial curve]

Question: How did the Potency turn out when `Cn1c(=O)c([N+](=O)[O-])c(-n2ccnc2)c2ccccc21` was run?
Answer: inconclusive [inhibitor, single point]

Question: With `Cc1ccccc1-n1c(=O)cc(N2CCC3(CC2)OCCO3)[nH]c1=O` as the compound, how does the “activity, negative = inhibition” value read?
Answer: inactive: 4.7%

Question: Which Potency does the source give for `COc1ccc2sc(N3C(=O)C4CC=C(C)CC4C3=O)nc2c1` (stereo not given) here?
Answer: active: 12.6 µM

Question: For `CCn1c(-c2csc3c2CCC(C)C3)n[nH]c1=S` (stereo not given), which Potency is on record?
Answer: inconclusive [inhibitor, partial curve]

Question: For `CC1C(=O)OC2C(O)C34C5CC(C(C)(C)C)C36C(OC(=O)C6O)OC4(C(=O)O5)C12O` (stereo not given), which “activity, negative = inhibition” value is on record?
Answer: inactive: 5.67%

Question: How did the “activity, negative = inhibition” value turn out when `OC1(CNCc2ccccc2)C2CC3CC(C2)CC1C3` (stereo not given) was run?
Answer: inactive: 5.54%

Question: Which Potency does the source give for `COc1cc2c(cc1NC(=O)CN1CCN(S(=O)(=O)c3ccccc3F)CC1)oc1ccccc12` here?
Answer: inconclusive [inhibitor, partial curve]

Question: For `C[N+](C)(C)CCCCCC[N+](C)(C)C`, which Potency is on record?
Answer: inactive
